Measurements: patent publication US10858425B2, “Pan-ELR+ CXC chemokine antibodies” (Eli Lilly and Company, priority 2013, dated 2020)

Tests used:
human CXCL5 (ENA-78) = biological target: T1, human CXCL5 (ENA-78) (Homo sapiens, UniProt P42830); experiment: Biacore surface plasmon resonance binding to human CXCL5; conditions: 25° C.
T1 sequence (P42830 41-114 limits assumed): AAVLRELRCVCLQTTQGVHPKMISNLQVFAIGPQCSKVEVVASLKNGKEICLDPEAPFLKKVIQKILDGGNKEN
Procedure: (§1) Biacore 2000 instrument and Biacore 2000 Evaluation Software Version 4.1 are used for surface plasmon resonance analysis. A […] chip is prepared using manufacturer's EDC/NHS amine coupling method. Briefly, the surfaces of all four flow cells are activated by injecting a 1:1 mixture of EDC/NHS for 7 minutes at 10 μL/min. Protein A is diluted to 100 μg/mL in 10 mM acetate, pH 4.5 buffer, and immobilized to achieve approximately 10,000 RU onto all 4 flow cells by 7-minute injection at a flow rate of 10 μL/minute. Unreacted sites are blocked with a 7-minute injection of ethanolamine at 10 μL/minute. Two injections of glycine (pH 1.5) for 30 seconds at 10 μL/minute are used to remove any non-covalently associated protein. Running buffer is HBS-EP+.
(§2) Antibody 1 or Antibody 2 is diluted to 2 μg/mL in running buffer, and approximately 400-600 RU is captured in flow cell (Fc). Ligands are diluted from 100 μg/mL to 50 nM in running buffer and then two-fold serially diluted in running buffer to 3.125 nM. Duplicate injections of each ligand concentration are injected at 100 μL/min for 150 seconds followed by a dissociation phase. […] The on-rate (kon) and off-rate (koff) for each ligand are evaluated using a “1:1 (mass transfer) Binding” binding model. The affinity […] is calculated from the binding kinetics according to the relationship: KD=koff/kon.

human CXCL7 (NAP-2) = biological target: T2, human CXCL7 (NAP-2) (Homo sapiens, UniProt P02775); experiment: Biacore surface plasmon resonance binding to human CXCL7; conditions: 25° C.
T2 sequence (P02775 59-128 limits assumed): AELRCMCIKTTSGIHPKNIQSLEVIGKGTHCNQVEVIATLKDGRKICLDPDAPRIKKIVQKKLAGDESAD
Procedure: as §1, §2

[1] = biological target: T3, human CXCL8 (77 amino acid form) (Homo sapiens, UniProt P10145); experiment: FLIPR neutralization using HMEC cells expressing human CXCR2, CXCL8 (77); assay type: cell-based; conditions: CXCL8 (77) 10 nM; HMEC-huCXCR2 FLIPR
T3 construct: Both the 72 amino acid and 77 amino acid forms of CXCL8 were used
T3 sequence (P10145 23-99 limits assumed): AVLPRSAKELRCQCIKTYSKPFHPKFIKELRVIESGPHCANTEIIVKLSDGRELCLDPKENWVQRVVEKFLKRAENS
Description: Since all of the ELR+ CXC chemokines can bind CXCR2 receptor, cells expressing CXCR2 were selected for in vitro studies. HMEC-huCXCR2 is an immortalized human endothelial cell line transduced with retrovirus for expression of human CXCR2 receptor. HMEC cells expressing human CXCR2 are able to induce intracellular Ca^2+ influx in response to human, cynomolgus monkey, rat, and mouse ELR+CXC chemokines. Intracellular Ca^2+ influx can be detected by a Fluorescent Imagine £late Reader (FLIPR). Chemokine neutralization should therefore also neutralize intracellular Ca^2+ influx induced by these chemokines.
HMEC-huCXCR2 is maintained in MCDB 31 medium supplemented with 10% fetal bovine serum, 2× GlutaMax, 1× non-essential amino acids, 1 μg/mL hydrocortisone, 10 ng/mL human Epidermal Growth Factor, and 0.4 μg/mL puromycin at 37° C. in 5% CO2. […] A cell plate and a ligand-antibody plate are loaded into a Fluorescent Imagine Plate Reader (FLIPR-3, Molecular Devices) programmed to transfer 50 μL of ligand-antibody to wells of the cell plate. Fluorescence is recorded every second for 90 seconds. The change in fluorescence (DRFU) is calculated from images 10 to 90. DRFU versus log (antibody concentration) is plotted and IC50 values are determined by nonlinear regression using Graph Pad Prism. […] Data are expressed as the mean of replicates. […]

- kon (human CXCL5 (ENA-78)): 5.43 ± 0.61 (1/Ms) × 10^5
- kon (human CXCL7 (NAP-2)): 9.00 ± 0.75 (1/Ms) × 10^5
- IC50 [1]: 0.358 (±0.078) ug/mL
B1: Antibody 1: antibody with heavy chain SEQ ID NO: 1 and light chain SEQ ID NO: 3, expressed in NSO cells (antibody)
heavy: QVQLVQSGAEVKKPGASVKVSCKASGYEFTSYWIHWVRQAPGQGLEWMGNISPNSGSANYNEKFKSRVTMTRDTSTSTVYMELSSLRSEDTAVYYCAREGPYSYYPSREYYGSDLWGQGTLVTVSSASTKGPSVFPLAPCSRSTSESTAALGCLVKDYFPEPVTVSWNSGALTSGVHTFPAVLQSSGLYSLSSVVTVPSSSLGTKTYTCNVDHKPSNTKVDKRV[human IgG4 Fc with S228P (EU numbers) not spelt out]
light: EIVLTQSPATLSLSPGERATLSCRASQSISNNLHWYQQKPGQAPRLLIYYTSRSVSGIPARFSGSGSGTDFTLTISSLEPEDFAVYYCGQNNEWPEVFGGGTKVEIKRTVAAPSVFIFPPSDEQLKSGTASVVCLLNNFYPREAKVQWKVDNALQSGNSQESVTEQDSKDSTYSLSSTLTLSKADYEKHKVYACEVTHQGLSSPVTKSFNRGEC
